According to PubChem BioAssay AID662 (National Center for Advancing Translational Sciences (NCATS), 2007):
Hit rate of the full screen: of about 71,000 compounds, about 1,800 (2.5%) were called active. This list was built around the results that the source calls inconclusive (neither active nor inactive); the mix of calls is not that of the screen. The call rests on the fitted dose curve; in most records, active means well fitted activation curve with a large enough effect in the signal ratio, with a control signal flat (not every such curve was filed as active); inconclusive means small, poorly fitted or top-dose-only effect, or effect the other way, or a change in a side signal; inactive means flat fitted curve, though single readings scatter; the % refers to the signal ratio. A potency beside an inconclusive call is a rough fit, not a confirmed value.

Assay: Cell signaling CRE-BLA (Fsk stim); on activity change, negative = inhibition: % of control where 0% means no effect
Conditions: CHO CRE-bla reporter (cAMP response element driving beta-lactamase), forskolin EC10, beta-lactamase ratio; activity change, negative = inhibition: at 38.2 µM (top of the series) unless noted
In short: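 Using CellSensor CRE-bla CHO cells in Opti-MEM with 0.5% dialyzed FBS, compounds were titrated with EC10 NKH 477 for 3 h at 37 °C. CCF4 ratio (460/530 nm) gave %Activity; AC50 derived.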
Potency means the concentration at half of the fitted maximal effect; tags describe the fitted curve by direction and shape.

Structure (SMILES)	activity change, negative = inhibition	Potency
C=CCn1cnc2c(c1=O)c1nc3ccccc3nc1n2-c1ccccc1	inactive: 25.7%	
Cc1ccc(N[C@H](c2ccccc2)c2ccc3cccnc3c2O)cc1	inactive: 7.64% [at 7.6 µM]	
O=C1C2CC=CCC2C(=O)N1c1ccc(Cc2ccncc2)cc1 (stereo not given)	inactive: -1.98%	
CCOC(=O)COc1ccc2nsnc2c1Cl	inconclusive: 11.7%	
CCCS(=O)(=O)N1CCCC(C(=O)NCCCN(C)c2ccccc2)C1 (stereo not given)	inactive: -5.42%	
COc1ccccc1NC(=O)CN1CCC(n2c(C)nc3cc(F)ccc32)CC1		active: 2 µM
C=CCn1c(C)cc(C(=O)CSc2nnc(NCc3ccccc3)s2)c1C	inconclusive: 28.5%	
COc1ccccc1N1CCN(C(c2cc3ccc(C)cc3[nH]c2=O)c2nnnn2C2CCCC2)CC1 (stereo not given)	inconclusive: 11.8%	
CC(C)(C)OC(=O)N[C@H](Cc1ccccc1)C(=O)N1CCC(C(=O)O)CC1	inconclusive: 8.71%	
CCCCSCc1nc2nc(Cl)c(Cl)nc2[nH]1	inactive: 8.84% [at 7.6 µM]	
O=C(CSc1nnc(-c2cccnc2)n1Cc1ccco1)c1ccccc1	inconclusive: -16.5%	
Cc1cccc(Nc2ccccc2C(=O)OCC(=O)N2CCOCC2)c1C	inactive: 16.8%	
COc1ccccc1-c1ccc2ncnc(NCCN3CCOCC3)c2c1	inconclusive: 12.5%	
c1ccc(-c2ccc(N3CC[C@@]4(CCCNC4)C3)cc2)cc1	inactive: -7.12%	
CCc1ccc2[nH]c(=O)c(CN(CCN(C)C)C(=O)Nc3ccccc3)cc2c1	inconclusive: -24.1%	
O=C(Nc1ccccc1N1CCN(C(=O)c2ccc(Cl)cc2)CC1)c1cc2ccccc2o1		inconclusive: 12.6 µM [rising, single point]
COc1cc(C2Nc3cccc4cccc(c34)N2)cc(OC)c1O	inconclusive: 11.4% [cytotoxic]	
CCn1c(SCc2nc3ccccc3nc2C)nnc1-c1cccs1		inconclusive: 6.31 µM [rising, partial curve]
COc1ccc(C(=O)N2CCC3(CCCN(Cc4cc(C(F)(F)F)cc(C(F)(F)F)c4)C3)CC2)cc1	inactive: 0.18%	
COc1ccc(OCC(=O)Nc2ccc(NC(=O)c3ccco3)cc2)cc1	inactive: -1.68%	
Cc1ccc(-c2nc3cccnc3s2)cc1NC(=O)c1ccco1	inconclusive: -5.88%	
CCOC(=O)c1nc2nc(C)cc(=O)n2[nH]1		inconclusive: 0.631 µM [falling, partial curve]
c1ccn2c(c1)nc1c2nc2ccccn21		inconclusive: 12.6 µM [rising, partial curve]
CC(=O)NC(Cc1c[nH]c2ccccc12)C(=O)OCC(=O)Nc1cc(C)on1 (stereo not given)	inconclusive: 6.85%	
Fc1ccccc1Cn1nnc2c(-n3ccnc3)ncnc21	inactive: 5.4%	
CN(Cc1ccccc1)c1nc2c(c(=O)[nH]c(=O)n2C)n1CCCSc1ncccn1		inconclusive: 10 µM [rising, partial curve]
Cc1[nH]n2c(=O)cc(C(C)C)nc2c1-c1ccccc1		inconclusive: 25.1 µM [rising, single point]
CC1(C)CC2(CCO1)CNC(=O)O2 (stereo not given)	inactive: 1.97%	

Structure (SMILES)	activity change, negative = inhibition	Potency
O=S1(=O)N=C(N2CCc3ccccc3C2)c2ccccc21	inconclusive: -7.54%	
COc1cccc(Cn2c(=O)c(-c3ccc(Cl)cc3)nc3cnc(N(C)C)nc32)c1		inconclusive: 0.501 µM [rising, full curve]
CCOC(=O)C(C)Sc1nnc(Cc2cc(=O)[nH]c(=O)[nH]2)n1-c1ccc(Cl)cc1 (stereo not given)	inactive: -5.39%	
CC1CN(c2nc3ccccn3c(=O)c2/C=C(\C#N)S(=O)(=O)c2ccccc2)CC(C)O1 (stereo not given)		inconclusive: 12.6 µM [rising, partial curve]
O=C(NC1(C(F)(F)F)Oc2ccccc2O1)N1CCCC1	inconclusive: -15.9%	
CN1[C@@H]2CC[C@H]1CC(OC(=O)c1c[nH]c3ccccc13)C2 (stereo not given in full)	inactive: -7.68%	
COc1cc(CNc2nc3ccccc3[nH]2)cc(OC)c1OC		inconclusive: 10 µM [rising, partial curve]
CCOC(=O)c1cc(-c2ccc3c(c2)OCCO3)nc2c1c(C)nn2CCC#N		active: 10 µM
CS(=O)(=O)c1ccc2nc(NC(=O)Oc3ccccc3)sc2c1	inconclusive: 5.88%	
COc1ccccc1CNc1cc(-c2cccc(C#N)c2)ncn1		inconclusive: 10 µM [rising, partial curve]
Cc1ccc(-c2cc(C(F)F)n3ncc(C(=O)N4CCN5CCCC5C4)c3n2)cc1 (stereo not given)	inconclusive: 26.7%	
CC(C)(C)NC(=O)CN(C(=O)CS(=O)CC(=O)Nc1ccc(F)cc1)c1ccc(Cl)cc1 (stereo not given)	inconclusive: -17.7%	
O=C(COc1ccc(S(=O)(=O)N2CCCC2)cc1Cl)Nc1ccc2c(c1)OCO2	inconclusive: 8.88%	
COc1ccccc1CNc1ncnc2nc[nH]c12	inactive: -1.98%	
Cc1ccc2c(CSc3nc4ccccc4c(=O)n3CCCO)cc(=O)oc2c1		active: 2 µM
CCCC(=O)Nc1cc(-c2cn3cccnc3n2)ccc1OC	inconclusive: -4.41%	
CN(Cc1ccco1)c1nc(-c2ccccc2C(F)(F)F)nc2ccccc12	inactive: 5.34%	
Cc1ccsc1C(=O)OCC(=O)NCc1ccc2c(c1)OCO2		inconclusive: 3.98 µM [falling, single point]
CC(=O)OC(C)C	inactive: -15.9%	
Cc1nc(SCC(=O)N2CCN(c3ccccc3)CC2)c2oc3ccccc3c2n1		inconclusive: 1.58 µM [rising, full curve]
CCOC(=O)C1=C(C)NC(=O)CC1c1cc2c(cc1Br)OCO2 (stereo not given)	inconclusive: 16.4%	
CC1(C)C(=O)C(c2ccccc2)=C2CN3C(=O)N(CCc4ccccc4)C(=O)C3(Cc3ccc(F)cc3)C=C21 (stereo not given)	inactive: -18.7%	
CCOC(=O)c1nnn(-c2nonc2N)c1CN(C)Cc1ccccc1	inactive: -17.5%	
Cc1ccc(OCCOCCn2ccnc2)c(Br)c1	inactive: 17.5%	
COc1ccc(-c2ccc(-c3nnc(-c4cc(OC)ccc4OC)o3)cc2)cc1		inconclusive: 1.26 µM [rising, partial curve]
COC(=O)Cc1c(C)nc2nc(NCc3c(F)cccc3Cl)[nH]n2c1=O	inactive: -2.71%	
O=C(O)C1Cc2c([nH]c3ccccc23)C(c2ccc3c(c2)OCO3)N1 (stereo not given)		inconclusive: 0.0251 µM [falling, full curve, poor fit]
